This note sets out measurements from patent publication US10358436B2, “Kinase inhibitors and method of treating cancer” (University Health Network, priority 2010, dated 2019).

What all share (assay): cells
Assay [1] relates to human mammary epithelial primary cells (HMEC). The conditions noted are these: 120 h, read-out: Cell Line GI50 Range HMEC.
The test system of assay [2] is A549 lung cancer cell line. The conditions noted are these: Homo sapiens, A549, 120 h, read-out: Cell Line GI50 Range A-549.
Assay [3] concerns MCF-7 luminal breast cancer cell line. The settings on record: Homo sapiens, MCF7, 120 h.
Assay [4] relates to SW620 colon cancer cell line. The conditions noted are these: Homo sapiens, SW-620, 120 h, read-out: Cell Line GI50 Range SW-620.
Assay [5] concerns HCC1954 basal breast cancer cell line. The settings on record: Homo sapiens, HCC1954, 120 h.
The test system of assay [6] is MDA-MB-468 basal breast cancer cell line. The settings on record: Homo sapiens, MDA-MB-468, 120 h.
[7] abbreviates: read-out: Cell Line GI50 Range MCF-7.
Setting [8] is: read-out: Cell Line GI50 Range HCC-1954, HCC1954 basal breast cancer cell line, SRB assay, 5 days.
Setting [9] is: read-out: Cell Line GI50 Range MDA-MB-468, MDA-MB-468 basal breast cancer cell line, SRB assay, 5 days.
The mark [10] stands for this setting: read-out: Cell Line GI50 Range MCF-7, MCF-7 luminal breast cancer cell line, SRB assay, 5 days.
Setting [11] is: read-out: Cell Line GI50 Range MDA-MB-468.
The mark [12] stands for this setting: read-out: Cell Line GI50 Range HCC-1954.

Like-named read-outs stand apart in the source and are kept apart here.

Take `COc1ccc2c(c1)[C@]1(C[C@H]1c1ccc3c(-c4ccc(N5CCN(CCO)CC5)cc4)n[nH]c3c1)C(=O)N2` [Example A191, (1R,2S)-2-(3-(4-(4-(2-hydroxyethyl)piperazin-1-yl)phenyl)-1H-indazol-6-yl)-5′-methoxyspiro[cyclopropane-1,3′-indolin]-2′-one 2,2,2-trifluoroacetate]: the GI50 was more than 10 µM in assay [1]; less than 0.1 µM in assay [2]; 1 to 10 µM in assay [3] (setting [7]); 0.1 to 1 µM in assay [4]; 1 to 10 µM in assay [5] (setting [8]); less than 0.1 µM in assay [6] (setting [9]).
`COc1ccc2c(c1)[C@]1(C[C@H]1c1ccc3c(/C=C/c4cccc(CN(C)C)c4)n[nH]c3c1)C(=O)N2` [Example A134, (1R,2S)-2-(3-(3-((dimethylamino)methyl)styryl)-1H-indazol-6-yl)-5′-methoxyspiro[cyclopropane-1,3′-indolin]-2′-one 2,2,2-trifluoroacetate]: the GI50 was more than 10 µM in assay [1]; less than 0.1 µM in assay [2]; less than 0.1 µM in assay [3] (setting [10]); 0.1 to 1 µM in assay [5] (setting [8]); less than 0.1 µM in assay [6] (setting [11]).
As to `COc1ccc2c(c1)[C@@]1(C[C@@H]1c1ccc3c(-c4ccc(N5CCN(C)CC5)nc4)n[nH]c3c1)C(=O)N2` [Example A15, (1S,2R)-5′-methoxy-2-(3-(6-(4-methylpiperazin-1-yl)pyridin-3-yl)-1H-indazol-6-yl)spiro[cyclopropane-1,3′-indolin]-2′-one], the GI50 in assay [2], in assay [3] (setting [7]), in assay [4], in assay [5] (setting [8]) and in assay [6] (setting [9]) was 1 to 10 µM each time.
For `COc1ccc2c(c1)[C@]1(C[C@H]1c1ccc3c(/C=C/c4ccc(CN5[C@H](C)CCC[C@@H]5C)cc4)n[nH]c3c1)C(=O)N2` [Example A203, (1R,2S)-(E)-2-(3-(4-((cis-2,6-dimethylpiperidin-1-yl)methyl)styryl)-1H-indazol-6-yl)-5′-methoxyspiro[cyclopropane-1,3′-indolin]-2′-one 2,2,2-trifluoroacetate], the GI50 in assay [2] was less than 0.1 µM; in assay [3] (setting [7]), less than 0.1 µM; in assay [4], less than 0.1 µM; in assay [5] (setting [12]), 1 to 10 µM; in assay [6] (setting [11]) it was less than 0.1 µM.
`CCN1Cc2ccc(/C=C/c3n[nH]c4cc([C@@H]5C[C@@]56C(=O)Nc5ccc(OC)cc56)ccc34)cc2C1` (relative stereo) [Example A190, (1R*,2S*)-2-(3-((E)-2-(2-ethylisoindolin-5-yl)vinyl)-1H-indazol-6-yl)-5′-methoxyspiro[cyclopropane-1,3′-indolin]-2′-one 2,2,2-trifluoroacetate]: the GI50 in assay [1] was 1 to 10 µM; in assay [2], less than 0.1 µM; in assay [3] (setting [10]), less than 0.1 µM; in assay [5] (setting [8]), less than 0.1 µM; in assay [6] (setting [11]) it was less than 0.1 µM.
Turning to `COc1ccc2c(c1)[C@]1(C[C@H]1c1ccc3c(-c4cccc(CO)c4)n[nH]c3c1)C(=O)N2` (relative stereo) [Example A43, (1R*,2S*)-2-(3-(3-(hydroxymethyl)phenyl)-1H-indazol-6-yl)-5′-methoxy spiro[cyclopropane-1,3′-indolin]-2′-one 2,2,2-trifluoroacetate], the GI50 in assay [2] was 1 to 10 µM; in assay [3] (setting [7]) it was 1 to 10 µM; in assay [4], 1 to 10 µM; in assay [5] (setting [12]), more than 10 µM; in assay [6] (setting [11]), 1 to 10 µM.
Turning to `COc1ccc2c(c1)[C@]1(C[C@H]1c1ccc3c(/C=C/c4ccc(N5CCNCC5)cc4)n[nH]c3c1)C(=O)N2` (relative stereo) [Example A182, (1R*,2S*)-5′-methoxy-2-(3-(4-(piperazin-1-yl)styryl)-1H-indazol-6-yl)spiro[cyclopropane-1,3′-indolin]-2′-one 2,2,2-trifluoroacetate], the GI50 in assay [2], in assay [3] (setting [10]), in assay [4], in assay [5] (setting [8]) and in assay [6] (setting [11]) was less than 0.1 µM each time.
Consider `COc1ccc2c(c1)[C@]1(C[C@H]1c1ccc3c(/C=C/c4ccc(CN5CCOCC5)c(F)c4)n[nH]c3c1)C(=O)N2` [Example A199, (1R,2S)-(E)-2-(3-(3-fluoro-4-(morpholinomethyl)styryl)-1H-indazol-6-yl)-S-methoxyspiro[cyclopropane-1,3′-indolin]-2′-one 2,2,2-trifluoroacetate], for which the GI50 was less than 0.1 µM in assay [2]; less than 0.1 µM in assay [3] (setting [10]); less than 0.1 µM in assay [4]; more than 10 µM in assay [5] (setting [8]); less than 0.1 µM in assay [6] (setting [11]).
Consider `CN1C(=O)[C@@]2(C[C@H]2c2ccc3c(/C=C/c4ccc(CN5CCOCC5)cc4)n[nH]c3c2)c2ccccc21` (relative stereo) [Example A87, (1R*,2S*)-(E)-1′-methyl-2-(3-(4-(morpholinomethyl)styryl)-1H-indazol-6-yl)spiro[cyclopropane-1,3′-indolin]-2′-one 2,2,2-trifluoroacetate], for which the GI50 in assay [2] is less than 0.1 µM; in assay [3] (setting [10]) it was less than 0.1 µM; in assay [4], 0.1 to 1 µM; in assay [5] (setting [8]) it was 1 to 10 µM; in assay [6] (setting [11]) it was less than 0.1 µM.
With `COc1ccc2c(c1)[C@]1(C[C@H]1c1ccc3c(-c4ccc(OCCN(C)C)cc4)n[nH]c3c1)C(=O)N2` (relative stereo) [Example A103, (1R*,2S*)-2-(3-(4-(2-(dimethylamino)ethoxy)phenyl)-1H-indazol-6-yl)-5′-methoxyspiro[cyclopropane-1,3′-indolin]-2′-one 2,2,2-trifluoroacetate], the GI50 in assay [2] was less than 0.1 µM; in assay [3] (setting [10]), less than 0.1 µM; in assay [4] it was less than 0.1 µM; in assay [5] (setting [8]), 1 to 10 µM; in assay [6] (setting [11]), less than 0.1 µM.
Turning to `COc1ccc2c(c1)[C@]1(C[C@H]1c1ccc3c(/C=C/c4ccc(CCN5CCOCC5)cc4)n[nH]c3c1)C(=O)N2` (relative stereo) [Example A178, (1R*,2S*)-(E)-5′-methoxy-2-(3-(4-(2-morpholinoethyl)styryl)-1H-indazol-6-yl)spiro[cyclopropane-1,3′-indolin]-2′-one 2,2,2-trifluoroacetate], the GI50 is less than 0.1 µM in assay [2]; less than 0.1 µM in assay [3] (setting [10]); less than 0.1 µM in assay [4]; 0.1 to 1 µM in assay [5] (setting [8]); less than 0.1 µM in assay [6] (setting [11]).
Take `CN1CCN(c2ccc(/C=C/c3n[nH]c4cc([C@@H]5C[C@@]56C(=O)N(C)c5ccccc56)ccc34)cn2)CC1` [Example A110, (1R,2S)-1′-methyl-2-(3-((E)-2-(6-(4-methylpiperazin-1-yl)pyridin-3-yl)vinyl)-1H-indazol-6-yl)spiro[cyclopropane-1,3′-indolin]-2′-one bis(2,2,2-trifluoroacetate)]: the GI50 in assay [2], in assay [3] (setting [7]), in assay [4], in assay [5] (setting [12]) and in assay [6] (setting [11]) was less than 0.1 µM each time.
Consider `COc1ccc2c(c1)[C@]1(C[C@H]1c1ccc3c(/C=C/c4ccc(N5CCNCC5)nc4)n[nH]c3c1)C(=O)N2` (relative stereo) [Example A163, (1R*,2S*)-5′-methoxy-2-(3-((E)-2-(6-(piperazin-1-yl)pyridin-3-yl)vinyl)-1H-indazol-6-yl)spiro[cyclopropane-1,3′-indolin]-2′-one 2,2,2-trifluoroacetate], for which the GI50 was less than 0.1 µM in assay [2]; less than 0.1 µM in assay [3] (setting [10]); less than 0.1 µM in assay [4]; 1 to 10 µM in assay [5] (setting [8]); less than 0.1 µM in assay [6] (setting [11]).
Turning to `CN1CCN(c2ccc(-c3n[nH]c4cc([C@@H]5C[C@@]56C(=O)N(C)c5ccccc56)ccc34)cn2)CC1` (relative stereo) [Example A93, (1R*,2S*)-1′-methyl-2-(3-(6-(4-methylpiperazin-1-yl)pyridin-3-yl)-1H-indazol-6-yl)spiro[cyclopropane-1,3′-indolin]-2′-one bis(2,2,2-trifluoroacetate)], the GI50 in assay [2], in assay [3] (setting [10]), in assay [4], in assay [5] (setting [8]) and in assay [6] (setting [11]) was 1 to 10 µM throughout.
In the case of `COc1ccc2c(c1)[C@]1(C[C@H]1c1ccc3c(/C=C/c4ccc(N5CCN(C(C)C)CC5)cc4)n[nH]c3c1)C(=O)N2` (relative stereo) [Example A189, (1R*,2S*)-(E)-2-(3-(4-(4-isopropylpiperazin-1-yl)styryl)-1H-indazol-6-yl)-5′-methoxyspiro[cyclopropane-1,3′-indolin]-2′-one 2,2,2-trifluoroacetate], the concentration for 50% growth inhibition (GI50) in assay [1] is 1 to 10 µM; in assay [3] (setting [10]) it was less than 0.1 µM; in assay [4], less than 0.1 µM; in assay [5] (setting [8]) it was less than 0.1 µM; in assay [6] (setting [11]), less than 0.1 µM.
For `NS(=O)(=O)c1cccc(-c2n[nH]c3cc([C@@H]4C[C@@]45C(=O)Nc4ccccc45)ccc23)c1` (relative stereo) [Example A130, 3-(6-((1R*,2S*)-2′-oxospiro[cyclopropane-1,3′-indoline]-2-yl)-1H-indazol-3-yl)benzenesulfonamide], the GI50 is more than 10 µM in assay [2]; 1 to 10 µM in assay [3] (setting [7]); more than 10 µM in assay [4]; more than 10 µM in assay [5] (setting [12]); 1 to 10 µM in assay [6] (setting [11]).
